Out of some 310,000 compounds screened, about 2,200 (0.71%) showed an effect of 50% or more. The effect is printed as a negative number. Some of the results follow.
Biological target: human ether-à-go-go-related gene (hERG) potassium channel (human, UniProt Q12809)
Assay: primary screen, population patch clamp on CHO cells stably expressing hERG

human ether-à-go-go-related gene (hERG) potassium channel, sequence (Q12809 whole entry, looked up): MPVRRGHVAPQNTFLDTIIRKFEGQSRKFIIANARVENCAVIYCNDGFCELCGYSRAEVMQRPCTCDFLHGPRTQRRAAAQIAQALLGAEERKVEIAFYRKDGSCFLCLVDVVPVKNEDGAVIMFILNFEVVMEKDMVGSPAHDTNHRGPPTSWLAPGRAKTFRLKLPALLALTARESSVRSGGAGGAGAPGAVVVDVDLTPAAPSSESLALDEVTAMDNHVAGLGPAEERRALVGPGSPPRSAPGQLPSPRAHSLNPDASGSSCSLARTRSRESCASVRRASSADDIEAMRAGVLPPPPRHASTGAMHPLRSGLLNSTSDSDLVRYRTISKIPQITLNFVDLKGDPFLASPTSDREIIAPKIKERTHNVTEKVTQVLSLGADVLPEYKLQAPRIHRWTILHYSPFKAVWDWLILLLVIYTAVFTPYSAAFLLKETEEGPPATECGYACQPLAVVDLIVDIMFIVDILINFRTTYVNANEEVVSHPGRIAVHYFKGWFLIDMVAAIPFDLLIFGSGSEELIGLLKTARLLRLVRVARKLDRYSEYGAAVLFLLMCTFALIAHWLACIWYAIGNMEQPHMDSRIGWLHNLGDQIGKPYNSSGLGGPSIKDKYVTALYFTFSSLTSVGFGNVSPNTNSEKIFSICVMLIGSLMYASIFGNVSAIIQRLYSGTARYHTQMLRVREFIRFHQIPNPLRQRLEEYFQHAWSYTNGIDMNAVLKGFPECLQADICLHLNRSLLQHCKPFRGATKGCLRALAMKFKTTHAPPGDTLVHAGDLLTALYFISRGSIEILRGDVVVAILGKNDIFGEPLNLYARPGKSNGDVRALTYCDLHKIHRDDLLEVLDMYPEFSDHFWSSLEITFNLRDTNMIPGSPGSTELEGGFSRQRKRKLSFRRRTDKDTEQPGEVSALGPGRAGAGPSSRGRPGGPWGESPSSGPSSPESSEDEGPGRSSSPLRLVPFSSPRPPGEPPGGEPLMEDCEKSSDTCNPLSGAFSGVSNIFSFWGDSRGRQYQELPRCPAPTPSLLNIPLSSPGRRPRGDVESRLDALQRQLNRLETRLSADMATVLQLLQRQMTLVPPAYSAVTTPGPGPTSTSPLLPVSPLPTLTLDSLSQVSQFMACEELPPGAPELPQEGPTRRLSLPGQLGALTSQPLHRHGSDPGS

Compared with `CCCCN1CC(=O)N2[C@H]3c4ccc(OC)cc4OC[C@@H]3[C@H](C(=O)OCC)[C@]2(C)C1=O`, `CCOC(=O)C(C)NC(=O)Cn1ncc2c(=O)oc3ccc(C)cc3c21` (stereo not shown) is lower in “hERG current change (%, negative = inhibition) at 1uM” value: 16.8% for the first, 2.09% for the second.

First: Cc1ccc2nc(-c3ccncc3)c(NC3CCCCC3)n2c1
Second: Cc1ccc2[nH]c3c(=O)n(Cc4ccncc4)cnc3c2c1
The “hERG current change (%, negative = inhibition) at 1uM” value of the first is higher: 10.7% for the first, 4.77% for the second.

First: C(=N\Nc1ccc2nncn2n1)/c1ccccn1
Second: C=CCn1c(SCC(=O)Nc2ccccc2CC)nnc1-c1ccncc1
The “hERG current change (%, negative = inhibition) at 1uM” value of the first is higher: 16.5% for the first, 1.02% for the second.

Going from `Cc1ccc[n+](CC(=O)Nc2ccc([N+](=O)[O-])cc2)c1.[Cl-]` to `CCC(=O)N1CCN(c2ccc(NC(=O)COc3ccccc3[N+](=O)[O-])cc2)CC1`, the “hERG current change (%, negative = inhibition) at 1uM” value falls from 17.6% to 10.1%.

Going from `Cc1cccc(NNC(N)=S)c1` to `CC(=O)NN1C(=O)/C(=C\c2ccc(C)cc2)SC1=S`, the “hERG current change (%, negative = inhibition) at 1uM” value rises from 12.4% to 13.8%.

First: Cc1cnc(C(=O)NCC(c2ccccc2)c2ccccc2)cn1
Second: C/C(Cc1ccccc1)=N\NC(=O)CNC(=O)c1ccccc1Cl
The “hERG current change (%, negative = inhibition) at 1uM” value of the first is lower: -1.77% for the first, 17.5% for the second.

Compared with `O=C(O)c1cccc(NS(=O)(=O)c2ccc3c(c2)C(=O)c2ccccc2C3=O)c1`, `COc1ccc(S(=O)(=O)N(C)C)cc1NC(=O)[C@H](Cc1ccccc1)N1C(=O)c2ccccc2C1=O` is lower in “hERG current change (%, negative = inhibition) at 1uM” value: 16.7% for the first, 2.05% for the second.

Going from `COc1ccc(C2C(C(C)=O)=C(O)C(=O)N2c2nc3ccccc3s2)cc1OC` (stereo not shown) to `COc1ccc(CCn2c(-c3ccc(Cl)cc3)n[nH]c2=S)cc1OC`, the “hERG current change (%, negative = inhibition) at 1uM” value rises from 15% to 17.3%.

Compared with `CNC(C)c1ccc(S(N)(=O)=O)cc1` (stereo not shown), `CSc1ccc(S(=O)(=O)NCc2ccccc2C)cc1` is lower in “hERG current change (%, negative = inhibition) at 1uM” value: 17.7% for the first, 6.77% for the second.

Going from `Cc1nnc(SCCC(=O)Nc2ccc(F)cc2)s1` to `CCOC(=O)CSc1nnc(NC(=O)CCc2ccccc2)s1`, the “hERG current change (%, negative = inhibition) at 1uM” value rises from 5.98% to 11.8%.

Going from `COc1cc(CO)cc(Br)c1OCC(=O)Nc1cccc2ccccc12` to `COc1ccc(/C=N/NC(=O)c2cc(-c3ccccc3)nc3ccccc23)cc1O`, the “hERG current change (%, negative = inhibition) at 1uM” value rises from 0.893% to 11.8%.

First: O=S(=O)(Nc1ccccc1Cl)c1ccc(NS(=O)(=O)c2cccs2)cc1
Second: CC(=O)Nc1ccc(S(=O)(=O)Nc2ccc(Cc3ccncc3)cc2)cc1
The “hERG current change (%, negative = inhibition) at 1uM” value of the first is higher: 12.6% for the first, 7.78% for the second.

First: Cc1ccc(OCc2cn3cccnc3n2)cc1
Second: CCn1c(SCc2ccc(OC)cc2)nnc1-c1ccncc1
The “hERG current change (%, negative = inhibition) at 1uM” value of the first is higher: 6.19% for the first, 4.49% for the second.

Compared with `CNC(=O)c1ccc(Nc2nnc(-c3ccc(C)c(S(N)(=O)=O)c3)c3ccccc23)cc1`, `Cl.O=C(O)c1ccc(Nc2nc(-c3ccccc3)nc3ccccc23)cc1` is higher in “hERG current change (%, negative = inhibition) at 1uM” value: 9.63% for the first, 15.4% for the second.

Going from `CCNC(=O)C1(c2ccccc2)CCCC1` to `CC(NC(=O)C1CC1)c1ccc(-c2ccccc2)cc1` (stereo not shown), the “hERG current change (%, negative = inhibition) at 1uM” value rises from 5.42% to 8.33%.

Compared with `O=C(Nc1ccc(Cl)c([N+](=O)[O-])c1)ONC1=NCCCCC1`, `O=C(CN1C(=O)NC2(CCCC2)C1=O)Nc1ccc(Cl)c(C(F)(F)F)c1` is higher in “hERG current change (%, negative = inhibition) at 1uM” value: -1.01% for the first, 9.87% for the second.

Compared with `CC(=O)Oc1ccc2c(=O)c(N3C(=O)c4ccccc4C3=O)c(C)oc2c1C`, `Cc1ccccc1-c1nc(CS(=O)(=O)CC(=O)NCc2ccc3c(c2)OCO3)c(C)o1` is lower in “hERG current change (%, negative = inhibition) at 1uM” value: 11.6% for the first, 8.28% for the second.

First: O=C(NCc1cc(C(F)(F)F)ccc1F)C1CCC(=O)N(C2CCCCCC2)C1 (stereo not shown)
Second: O=C(c1cc(C2CC2)on1)N1CCCC(N2CCN(c3cccc(C(F)(F)F)c3)CC2)C1 (stereo not shown)
The “hERG current change (%, negative = inhibition) at 1uM” value of the first is higher: 5.87% for the first, 4.67% for the second.

Going from `CC(=O)N(CN1C(=O)CCC1=O)c1cccc(Cl)c1` to `CC1(C)CC(=O)N(c2cc(Cl)ccc2Cl)C(=O)C1`, the “hERG current change (%, negative = inhibition) at 1uM” value rises from 4.51% to 10.7%.

First: COc1cccc(-n2cc3c(c2-c2ccccc2)c(=O)n(C)c(=O)n3C)c1
Second: Cn1c(=O)c2c(ncn2CCOc2ccc(F)cc2)n(C)c1=O
The “hERG current change (%, negative = inhibition) at 1uM” value of the first is lower: -12.3% for the first, 20.7% for the second.

Going from `COc1ccc2c(CCNC(=O)Nc3ccccc3)c[nH]c2c1` to `COc1nc(OCCNC(=O)Nc2ccccc2)nc(N(C)C)n1`, the “hERG current change (%, negative = inhibition) at 1uM” value falls from 10.6% to -0.757%.

Compared with `Cc1ccc(Nc2nc(N)nc(CN3CCc4ccccc4C3)n2)cc1`, `Cc1ccc(C(=O)C2CCN(CC(=O)Nc3ccccc3C)CC2)cc1` is lower in “hERG current change (%, negative = inhibition) at 1uM” value: -31.5% for the first, -31.8% for the second.

Going from `N#C/C(=C\c1cccs1)C(=O)c1ccccc1Cl` to `Cc1[nH]c(=O)c(C#N)cc1-c1csc(-c2ccccc2)n1`, the “hERG current change (%, negative = inhibition) at 1uM” value rises from 10.5% to 14.1%.

Going from `O=C(CN(C(=O)CNC(=O)c1ccco1)c1ccc(Cl)c(Cl)c1)NC1CCCCC1` to `O=C(CN1CCC(C(=O)c2cccc(Cl)c2)CC1)Nc1cccc(C(=O)O)c1`, the “hERG current change (%, negative = inhibition) at 1uM” value rises from 6.31% to 8.11%.

First: N#Cc1c(-c2ccc3c(c2)OCO3)csc1N
Second: Cc1oc(-c2ccc3c(c2)OCCO3)cc1C(=O)NCC(=O)O
The “hERG current change (%, negative = inhibition) at 1uM” value of the first is higher: 14.3% for the first, 5.32% for the second.

Compared with `COCc1cc(C)nc2sc(C(=O)Nc3ccccc3OC)c(N)c12`, `COc1cccc(/C=N\NC(=O)c2sc(N)nc2C)c1OC` is lower in “hERG current change (%, negative = inhibition) at 1uM” value: 14.8% for the first, 11% for the second.

Going from `COc1ccccc1CCc1nnc(CCC(=O)NCC[C@@H]2C[C@@H]3C=C[C@H]2C3)o1` to `COCCn1c(Cc2ccccc2)nnc1SCC(=O)NC1CC1`, the “hERG current change (%, negative = inhibition) at 1uM” value rises from -3.8% to 11.6%.

Compared with `COc1ccc(F)cc1C(=O)C1CCCN(C(=O)C2=C(C)OCCO2)C1` (stereo not shown), `COc1ccc(-c2[nH]ncc2CN2CCC(C(=O)N3CCOCC3)CC2)c(F)c1` is lower in “hERG current change (%, negative = inhibition) at 1uM” value: 14.5% for the first, 7.21% for the second.

Going from `Cn1c(=O)oc2cc(S(=O)(=O)N3CCN(c4ccccc4F)CC3)ccc21` to `O=S(=O)(c1ccc2c(c1)OCCO2)N1CCc2ccccc21`, the “hERG current change (%, negative = inhibition) at 1uM” value falls from 9.78% to 7.04%.

Compared with `Cc1ccc(C(=O)Nc2ccncc2)cc1S(=O)(=O)N1CCOCC1`, `Cc1ccc(-n2ncc3c2CCCC3NC(=O)c2ccoc2)cc1C` (stereo not shown) is lower in “hERG current change (%, negative = inhibition) at 1uM” value: 13.4% for the first, -78.5% for the second.

First: Cc1ccc(/C=C(\C#N)C(=O)NC(C)C)o1
Second: CC(C)OC(=O)c1ccc2nc3ccccc3nc2c1
The “hERG current change (%, negative = inhibition) at 1uM” value of the first is lower: 7.59% for the first, 18.9% for the second.

Going from `Oc1ccc(-c2n[nH]c(=S)n2Cc2ccccc2)cc1` to `Cn1c(=O)[nH]c(=O)c2c1nc(CN1CCN(c3cccc(Cl)c3)CC1)n2CCc1ccccc1`, the “hERG current change (%, negative = inhibition) at 1uM” value rises from 7.69% to 9.17%.

Going from `COC(=O)c1ccc(C(=O)NC(=S)Nc2ccc3nc(SC)sc3c2)cc1` to `COc1ccc(C(C)=O)cc1COC(=O)C(CO)NS(=O)(=O)c1ccc(Br)cc1` (stereo not shown), the “hERG current change (%, negative = inhibition) at 1uM” value rises from -10.5% to 12.7%.

Compared with `CCOc1ccc(N(Cc2ccc(C(=O)O)cc2)S(=O)(=O)c2ccc(C)cc2)cc1`, `COc1ccc(CCNC(=O)C2CCN(C(=O)c3ccc(C(C)(C)C)cc3)CC2)cc1` is higher in “hERG current change (%, negative = inhibition) at 1uM” value: 3.02% for the first, 8.38% for the second.

First: COc1ccc(OCCSc2ncnc3nc[nH]c23)cc1
Second: COc1cccc2c(Cl)c(CC=C(Cl)Cl)c(C)nc12
The “hERG current change (%, negative = inhibition) at 1uM” value of the first is lower: 10.6% for the first, 19.1% for the second.

Going from `Cc1c(C(C)C[C@H](C)O)oc(=O)c2c1Oc1c(C)c(C(C)C[C@H](C)O)oc(=O)c1C2` (stereo partly shown) to `CCC(C(=O)NCC1CCCO1)n1nc(C)c2sc3ccccc3c2c1=O` (stereo not shown), the “hERG current change (%, negative = inhibition) at 1uM” value falls from 9.02% to 4.25%.

Compared with `CCc1cc(C(=O)Nc2cc(S(=O)(=O)N(CC)CC)ccc2N2CCN(C)CC2)sc1C`, `CCOC(=O)N1CCC(N2Cc3cccc(C(=O)N4CCN(c5cccc(C)c5C)CC4)c3C2=O)CC1` is lower in “hERG current change (%, negative = inhibition) at 1uM” value: 4.55% for the first, 0.229% for the second.

First: COCCNC(=O)CS(=O)Cc1nc(-c2ccc(Cl)cc2)oc1C (stereo not shown)
Second: COc1ccccc1C(=O)NCC(=O)OCCCOC(=O)CNC(=O)c1ccccc1OC
The “hERG current change (%, negative = inhibition) at 1uM” value of the first is lower: 11% for the first, 13.1% for the second.

First: Cc1ccsc1C(=O)N1CCCC(CCC(=O)N2CCN(c3ccccn3)CC2)C1 (stereo not shown)
Second: CCOC(=O)C1CCN(C(=O)Cn2cc(C(=O)OC)c3ccccc32)CC1
The “hERG current change (%, negative = inhibition) at 1uM” value of the first is higher: 12.6% for the first, -7.99% for the second.

Going from `CCSc1nnc(Cc2cc(=O)[nH]c(=O)[nH]2)n1-c1cc(C)ccc1C` to `Cn1c(N)c(C(=O)CSc2nn(-c3ccc(F)cc3)c(=S)s2)c(=O)n(C)c1=O`, the “hERG current change (%, negative = inhibition) at 1uM” value falls from 14.8% to 11.8%.

Compared with `CCC(=O)N(CCN1CCOCC1)Cc1cc2cc3c(cc2nc1Cl)OCO3`, `CCc1c(C)[nH]c2c1C(=O)C(CN1CCOCC1)CC2.Cl` (stereo not shown) is higher in “hERG current change (%, negative = inhibition) at 1uM” value: -31.8% for the first, 2.29% for the second.

Compared with `Oc1c(Cl)cc(Cl)cc1/C=N/NC(=S)NC1CC2C=CC1C2` (stereo not shown), `O=C(NCCc1cccs1)C12CN(Cc3ccccc3)CC1C(c1cccc([N+](=O)[O-])c1)=NO2` (stereo not shown) is higher in “hERG current change (%, negative = inhibition) at 1uM” value: 6.11% for the first, 21.2% for the second.

First: CN(C)c1ccc(/C=[N+](\[O-])C(C)(C)/C=N/O)cc1
Second: O=C(/C=C\c1ccco1)Oc1cccc2cccnc12
The “hERG current change (%, negative = inhibition) at 1uM” value of the first is higher: -4.15% for the first, -27.2% for the second.

First: CCCn1[nH]cc(SC)c(=O)c1=O
Second: Cc1nn(C(C)C(=O)NCc2cccs2)c(=O)c2nn(-c3ccccc3)c(C)c12 (stereo not shown)
The “hERG current change (%, negative = inhibition) at 1uM” value of the first is higher: -1.14% for the first, -10.2% for the second.
